Laboratory results as given in PubChem BioAssay AID488969 (Vanderbilt High Throughput Screening Facility, 2010).
Whole data set: some 110,000 compounds, median “z-score” near -0.1, cut for the highest 2% near 2. The list shows a part of the results.

The compounds below were run against Metabotropic glutamate receptor 8 (Rattus norvegicus) (UniProt P70579) (assay: rat mGluR8 modulators via GIRK flux, primary screen, cell-based, thallium flux, HTS (AID 488969)). Settings: HEK293 rat mGluR8, GIRK (G protein-gated inwardly rectifying potassium channel) thallium flux, FluoZin2; at 10 µM; stronger effect = higher value; submaximal glutamate (EC20) added with thallium.
Sequence of UniProt P70579 (P70579 whole entry, looked up): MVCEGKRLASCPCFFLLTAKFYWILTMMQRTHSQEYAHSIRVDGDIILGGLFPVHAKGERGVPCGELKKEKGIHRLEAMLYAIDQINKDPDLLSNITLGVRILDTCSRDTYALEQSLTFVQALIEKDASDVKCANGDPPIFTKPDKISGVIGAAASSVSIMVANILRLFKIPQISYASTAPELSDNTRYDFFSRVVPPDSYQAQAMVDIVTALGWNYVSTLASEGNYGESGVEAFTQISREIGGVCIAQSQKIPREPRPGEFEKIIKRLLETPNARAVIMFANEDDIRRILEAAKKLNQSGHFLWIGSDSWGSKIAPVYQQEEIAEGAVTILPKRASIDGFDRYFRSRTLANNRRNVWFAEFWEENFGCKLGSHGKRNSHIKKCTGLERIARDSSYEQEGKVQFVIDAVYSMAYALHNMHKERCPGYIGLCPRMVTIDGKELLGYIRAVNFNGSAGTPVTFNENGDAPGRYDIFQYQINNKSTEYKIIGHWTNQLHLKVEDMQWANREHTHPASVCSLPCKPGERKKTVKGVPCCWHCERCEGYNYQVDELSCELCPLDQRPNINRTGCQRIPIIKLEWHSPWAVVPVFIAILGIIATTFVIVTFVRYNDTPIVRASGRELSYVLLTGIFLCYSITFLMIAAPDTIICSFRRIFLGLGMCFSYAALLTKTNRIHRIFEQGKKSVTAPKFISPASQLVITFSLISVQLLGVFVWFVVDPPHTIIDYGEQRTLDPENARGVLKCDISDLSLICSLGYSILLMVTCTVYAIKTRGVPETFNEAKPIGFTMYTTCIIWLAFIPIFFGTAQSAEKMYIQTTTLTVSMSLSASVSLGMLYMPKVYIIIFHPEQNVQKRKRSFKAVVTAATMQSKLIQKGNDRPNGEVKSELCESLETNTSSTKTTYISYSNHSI

| SMILES | z-score |
| --- | --- |
| CCOC(=O)c1c(-c2cccc([N+](=O)[O-])c2)csc1NC(=O)C1CCCCC1 | -0.116 |
| Cc1ccc(N2C(=O)CC(C3CCCO3)C2=O)cc1 (configuration not stated) | -0.153 |
| Cc1cccc(OCC(=O)N/N=C/CC(C)c2ccccc2)c1C (configuration not stated) | -0.0322 |
| COc1ccc(NC(=O)CCN2CCCCCC2)cc1 | -0.0238 |
| O=C(CSc1ncn[nH]1)Nc1ccccc1-c1ccccc1 | 0.14 |
| CCOc1ccc(Cc2nnc(SCC(N)=O)n2C)cc1 | -0.104 |
| CN1/C(=C\C(=O)Nc2cccc(Cl)c2)C(C)(C)c2ccccc21 | 0.127 |
| Cc1ccc(C(=O)N/C(=C/c2ccc(-c3cc(C(F)(F)F)ccc3Cl)o2)C(=O)NCc2cccnc2)cc1 | -0.199 |
| Cc1cc(N2C(=O)c3ccc(C(=O)NCc4ccccc4)cc3C2=O)no1 | -0.278 |
| Cc1ccc(C2C(=O)N(C3CCC(C)CC3)CC(=O)N2C2CCCC2)cc1 (configuration not stated) | -0.164 |
| O=C(OC(C(=O)NC1CCCC1)c1cccnc1)C1=Cc2ccccc2OC1 (configuration not stated) | -0.178 |
| Cc1ccc(NC(=O)O/N=C2\CCCCC2c2ccc([N+](=O)[O-])cc2[N+](=O)[O-])cc1 (configuration not stated) | -0.539 |
| O=C(Nc1ccccc1C(F)(F)F)NC1CCCCC1 | 0.343 |
| C/C(=N\S(=O)(=O)c1ccc(C)cc1)N1CCN(S(=O)(=O)c2ccccc2)C1 | 0.0756 |
| Cc1cc(C)n(-c2nc(C)nc(N)n2)n1 | 0.0243 |
| CCCCC(CC)C(=O)Nc1ccccc1C#N (configuration not stated) | 0.525 |
| c1ccc(Cn2nnnc2CN2CCN(c3ncccn3)CC2)cc1 | 0.366 |
| O=C(NC1=NCCS1)c1ccc(Cl)s1 | 1.35 |
| CC1CCCCN1S(=O)(=O)c1ccc(N(C(=O)c2cnccn2)C(C(=O)NC2CCCCC2)c2cccs2)cc1 (configuration not stated) | -0.263 |
| COC(=O)c1[nH]c2cc(OC)ccc2c1NC(=O)CN1CCN(c2cccc(C)c2)C(C)C1 (configuration not stated) | -0.284 |
| CC1CCN(C(=O)CSc2nnc(-c3cc4ccccc4cc3O)n2Cc2ccco2)CC1 | -1.69 |
| CC(C)CCNC(=O)NC(=O)CSc1nnc2ccccn12 | 0.0329 |
| O=C(CSc1nc(C2CC2)nc2ccccc12)N1c2ccccc2Sc2ccccc21 | 0.0302 |
| CCCn1c(CN2CCN(C)CC2)nc2ccccc21 | -0.31 |

| SMILES | z-score |
| --- | --- |
| Cc1csc(SCC(=O)Nc2cccc3nsnc23)n1 | -0.0818 |
| Clc1cccc(Cl)c1CSc1nnc(-c2sccc2-n2cccc2)o1 | -0.0528 |
| C/C(=N\NC(=O)c1ccn(C)n1)c1ccc(NC(=O)C2CCCC2)cc1 | 0.533 |
| Cc1ccc(S(=O)(=O)CC2CSc3nc4ccccc4n32)cc1 (configuration not stated) | -0.024 |
| CCn1c(SCC(=O)N/N=C/c2ccc(C)s2)nc2ccccc21 | 0.177 |
| COc1ccccc1N1CCN(C(=O)COc2ccc(C)cc2Br)CC1 | 0.883 |
| C=CCNC(=O)c1ccccc1NS(=O)(=O)c1ccc(SC)cc1 | 0.228 |
| Cc1cccc(NC(=O)c2sc(-c3ccccc3)nc2-c2ccc([N+](=O)[O-])cc2)c1 | -0.653 |
| O=S(=O)(NCCc1csc(-c2ccccc2)n1)c1ccc2c(c1)OCCO2 | -1.46 |
| Cc1csc(NC(=O)CCS(=O)(=O)c2ccc(Br)cc2)n1 | 0.039 |
| O=C(NCc1ccco1)c1ccc(COCC(F)(F)F)cc1 | -0.0156 |
| C=CCNC(=S)NNC(=O)c1cccn(Cc2ccc(Cl)cc2Cl)c1=O | -0.116 |
| CCn1c(SCC(=O)N2CCCCC2C)nc2ccsc2c1=O (configuration not stated) | -1.46 |
| O/N=C(\COc1ccccc1O)c1ccccc1 | -0.203 |
| Cc1sc2ncnc(OCC(=O)N3CCN(S(=O)(=O)c4ccc(Cl)cc4)CC3)c2c1C | -0.334 |
| CCOC(=O)c1c(NC(=O)C2CC2)sc(C)c1CC | -0.5 |
| COc1ccccc1NC(=S)NC(=O)c1ccc(-c2ccc(Cl)cc2)o1 | 1.42 |
| CCOc1ccc(NS(=O)(=O)c2ccc(NC(=O)C3CCCO3)cc2)cc1 (configuration not stated) | -0.278 |
| CCn1c(N2CCN(C(=S)NC)CC2)nc2ccccc21 | -0.0787 |
| O=C1CCCC2=C1C(c1ccccc1)n1c(s/c(=C/c3cccc(F)c3)c1=O)=N2 (configuration not stated) | 1.06 |
| N#C/C(=C\c1ccccc1)c1nc2ncccc2[nH]1 | -0.196 |
| C=CCC1c2cccc(C(=O)O)c2C(=O)N1c1ccc(Cl)cc1 (configuration not stated) | -0.148 |
| c1ccc(Sc2ncnc3c2oc2ccccc23)nc1 | 0.585 |
| CCCCN(C)C(=S)Nc1ccc(Oc2ccccc2)cc1 | 1.42 |

| SMILES | z-score |
| --- | --- |
| Cc1ccc(S(=O)(=O)Cc2nc3ccccc3c(=O)[nH]2)cc1 | -0.19 |
| CC(C)c1ccc(C(=O)CC2(O)C(=O)N(CN3CCOCC3)c3ccccc32)cc1 (configuration not stated) | 0.818 |
| COc1cccc(C(=O)O/N=C(\N)c2ccncc2)c1 | -0.198 |
| CCOc1ccccc1Oc1c(C)oc2cc(OC(=O)c3ccco3)ccc2c1=O | -0.141 |
| Cc1ccc(CSC2=NCCN2C(=O)C2CC2)cc1 | -0.574 |
| CCc1nnc(NC(=O)CCC(=O)N2CCN(CCOc3ccc(C)cc3)CC2)s1 | 0.475 |
| CC(C)(C)n1ncc2c(=O)n(CC(=O)c3ccc(Cl)cc3)cnc21 | 0.583 |
| O=c1[nH]c2ccccc2nc1C(Cl)c1ccccc1 (configuration not stated) | 0.0661 |
| CCCOc1cc(C)c(S(=O)(=O)N2CCOCC2)cc1C | -0.463 |
| N#Cc1ccccc1NC(=O)CNc1ccc(Cl)c(C(F)(F)F)c1 | 2.38 |
| COc1ccc(C)cc1NC(=O)CC(O)(C(F)(F)F)C(F)(F)F | 0.00381 |
| O=S(=O)(NCCSc1ccccc1)c1ccc(F)cc1 | -0.368 |
| CCOC(=O)c1ccc(NC(=O)N2CCc3ccccc32)cc1 | -0.768 |
| COc1ccc(C2C(C(C)=O)=C(C)N=c3s/c(=C/c4ccc5c(c4)OCO5)c(=O)n32)cc1 (configuration not stated) | 0.276 |
| CCCCSc1nnc(-c2ccc(OC)cc2)n1C | 0.16 |
| CCCSc1nnc(NC(=O)c2sc3nc(-c4cccs4)ccc3c2N)s1 | -0.693 |
| CCn1c(COc2ccc(Cl)cc2)nnc1SCc1nc2ccccc2[nH]1 | -0.159 |
| COc1cccc(C2NC(=O)c3sc(=S)n(-c4ccccc4)c3N2)c1 (configuration not stated) | 1 |
| O=C(O)CC(c1ccccc1)n1cccc1 (configuration not stated) | -0.0906 |
| Cn1c(=O)cc(OCCCC(=O)NC2CCCC2)c2ccccc21 | -0.132 |
| O=[N+]([O-])c1ccc(N2CCOCC2)cc1NCc1ccccc1 | -0.256 |
| O=C(c1ccc(CN2CCOCC2)cc1)N1CCC(Cc2ccccc2)CC1 | 0.0361 |
| COc1ccc([N+](=O)[O-])cc1NC(=O)C(C)N(C)Cc1cccc(OC)c1OC (configuration not stated) | -0.728 |
| NS(=O)(=O)c1ccc(NC(=S)Nc2ccc(F)c(F)c2)cc1 | 0.0489 |
